# Experimental data as given in the supplement of paper PMC4723716.
# ± gives the uncertainty stated by the source. In all, about 9,900 compounds were measured (“viability index relative to DMSO control”: median about 1, lowest 2% from about 0.85 on). The list shows a part of the results.
# Test system: Plasmodium falciparum NF54 stage V gametocytes
# Assay: viability index relative to DMSO control (fraction); higher = less gametocyte killing
# Conditions: 2.5 µM, library set: Broad Institute DOS, incubation time: 72 h
# Method in brief: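 Stage V gametocytes of P. falciparum NF54 were held in serum-free screening medium at 0.75% gametocytemia and 1.25% hematocrit, 10 µl per well of a 1,536-well plate, and exposed to compound at 2.5 µM for 72 hr at 37°C under low oxygen. A 3 µl mix of 2.5 µM MitoTracker Red CMXRos with 0.13% saponin was then added for one to two hours, after which one field per well was imaged and red particles of 20–70 µm2 were counted. The viability index equals this count divided by the plate mean from wells given solvent alone.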
row,Structure (SMILES),viability index
1,COc1ccc2c3c([nH]c2c1)[C@@H](CO)N(C[C@]31CCN(CC1)S(C)(=O)=O)C(=O)C1CCOCC1,1.07 ± 0.023
2,COc1ccccc1C(=O)N1C[C@@H]2[C@H](c3ccccc31)[C@@H](CO)N2C(=O)Cc1ccccc1,0.949 ± 0.13
3,O=C(C[C@H]1CC[C@H]2[C@@H](COC[C@H](O)CN2CCC(F)(F)F)O1)NCc1ccc2c(c1)OCO2,0.983 ± 0.063
4,CN1CCN(C(=O)C[C@H]2CC[C@H]3[C@@H](COC[C@H](O)CN3CC3CCCCC3)O2)CC1,0.984 ± 0.013
5,CCS(=O)(=O)Nc1ccc2c(c1)C(=O)N(C)C[C@@H](OC)[C@@H](C)CN(CC1CCCCC1)[C@@H](C)CO2,0.989 ± 0.074
6,O=C1[C@@H](Cc2ccc(F)cc2)CCn2cc(nn2)COC[C@H]2CCCN12,1.05 ± 0.071
7,N#C[C@@H]1[C@H](c2ccc(C3=CCCCC3)cc2)[C@@H](CO)N1S(=O)(=O)c1ccccc1,1.17 ± 0.12
8,Cc1cc(C(=O)Nc2ccc3c(c2)C(=O)N(C)[C@H]2CC[C@@H](CC(=O)NCc4ccc(-c5ccccc5)cc4)O[C@H]2CO3)no1,0.982 ± 0.012
9,O=C(NC[C@@H]1[C@@H](c2ccccc2)[C@H](CO)N1C(=O)Cc1ccncc1)C1CCC1,1.02 ± 0.046
10,C[C@@H](NC(=O)[C@H]1[C@H](CO)[C@H]2Cn3c(ccc(-c4ccccc4)c3=O)[C@H]2N1C)c1ccccc1,0.935 ± 0.054
11,CCCN(C)C[C@H]1OCCCC[C@@H](C)Oc2ccc(NC(=O)CCCN(C)C)cc2C(=O)N([C@@H](C)CO)C[C@H]1C,1.1 ± 0.031
12,COc1ccc(CNC(=O)C[C@@H]2CC[C@H](NC(=O)CN(C)C)[C@@H](CO)O2)cc1,1.08 ± 0.041
13,C[C@@H]1CN([C@@H](C)CO)C(=O)CCCn2cc(nn2)CO[C@@H]1CN(C)C(=O)Nc1cccc(C(F)(F)F)c1,0.984 ± 0.013
14,C[C@H]1C/C=C/C[C@@H](c2cccc(Cl)c2)NC(=O)[C@H](Cc2ccccc2)N(C)C(=O)c2ccccc2O1.C[C@H]1C/C=C\C[C@@H](c2cccc(Cl)c2)NC(=O)[C@H](Cc2ccccc2)N(C)C(=O)c2ccccc2O1,0.9285 ± 0.0058
15,COc1cccc(NC(=O)N2CC3(C2)[C@H](c2ccccc2)[C@H](CO)N3C(C)=O)c1,1.0455 ± 0.00073
16,CCS(=O)(=O)N1C[C@@]2(C1)CN(Cc1ccc3OCOc3c1)[C@@H](CO)c1c2c2ccc(OC)cc2n1C,1.05 ± 0.035
17,CCCNC(=O)N1CC[C@@]2(CC1)CN(Cc1cccc(OC)c1)[C@@H](CO)c1[nH]c3cc(OC)ccc3c21,1.03 ± 0.026
18,C[C@H]1CN([C@@H](C)CO)C(=O)c2cccc(NC(=O)Nc3ccc(F)cc3)c2O[C@H]1CN(C)S(=O)(=O)c1ccc(Cl)cc1,0.959 ± 0.098
19,COc1ccccc1C#Cc1ccc([C@H]2[C@@H](CO)N3CCCCN(C(=O)C4CCC4)C[C@@H]23)cc1,0.989 ± 0.21
20,COCC(=O)N1[C@@H]2c3ccc(C4=CCCCC4)c(=O)n3C[C@@H]2[C@@H](CO)[C@@H]1C(=O)N1CCN(C)CC1,1.09 ± 0.012
21,CC[C@H]1C/C=C\C[C@H](C(C)C)NC(=O)CCC(=O)N1,1.027 ± 0.01
22,CCCNC(=O)[C@H]1[C@H](CO)[C@H]2Cn3c(cccc3=O)[C@@H]1N2CCC(F)(F)F,1.04 ± 0.017

row,Structure (SMILES),viability index
1,COc1cc(CN2C[C@@H]3N[C@H](C2)[C@@H]3c2ccc(-c3ccc(C#N)cc3)cc2)cc(OC)c1,0.913 ± 0.071
2,C[C@H](CO)N1C[C@H](C)[C@@H](CN(C)Cc2ccc(C(=O)O)cc2)Oc2ccc(NC(=O)CCN3CCOCC3)cc2CC1=O,0.971 ± 0.035
3,CCN(C[C@H]1[C@H](c2ccccc2)[C@H](CO)N1CC1CC1)C(=O)c1ccccn1,0.975 ± 0.054
4,C[C@H]1CN([C@@H](C)CO)C(=O)CCCn2nncc2CO[C@H]1CN(C)Cc1ccc2cccnc2c1,1.07 ± 0.011
5,CC(=O)N1[C@H](CO)[C@H](c2ccc(C3=CCCCC3)cc2)[C@@H]1CNC(=O)CN(C)C,1.016 ± 0.0023
6,N#C[C@H]1[C@H](c2ccccc2-c2ccccc2F)[C@@H](CO)N1C(=O)C1CCC1,1.17 ± 0.17
7,C[C@H](NC(=O)C[C@H]1CC[C@@H]2[C@H](COC[C@@H](O)CN2Cc2ccc(C(F)(F)F)cc2)O1)c1ccccc1,0.9829 ± 0.0018
8,C[C@@H]1CN([C@H](C)CO)C(=O)CCCn2nncc2CO[C@@H]1CN(C)S(=O)(=O)c1ccccc1C#N,1.13 ± 0.094
9,O=C(CCN1CCCCC1)N[C@H]1CC[C@H](CC(=O)N2CCC(Cc3ccccc3)CC2)O[C@H]1CO,0.999 ± 0.041
10,C/C=C/c1ccc2n(c1=O)C[C@H]1[C@H](CO)[C@@H](C(=O)N[C@@H](C)c3ccccc3)[C@@H]2N1Cc1cncnc1.C/C=C\c1ccc2n(c1=O)C[C@H]1[C@H](CO)[C@@H](C(=O)N[C@@H](C)c3ccccc3)[C@@H]2N1Cc1cncnc1,1.09 ± 0.091
11,O=C(N[C@H]1CC[C@H](CC(=O)N2CCOCC2)O[C@@H]1CO)c1cccc(F)c1,0.995 ± 0.03
12,COCC(=O)Nc1ccc2c(c1)OC[C@@H](C)N(Cc1ccccc1C(=O)O)C[C@@H](C)[C@H](OC)CN(C)C2=O,1.074 ± 0.0068
13,O=C(CCN1CCCCC1)N[C@H]1CC[C@@H](CCn2cc(-c3cccc(F)c3)nn2)O[C@@H]1CO,1.05 ± 0.089
14,CNC[C@H]1Oc2ccc(NC(=O)NC3CCCCC3)cc2CC(=O)N([C@@H](C)CO)C[C@H]1C,1.06 ± 0.061
15,CCCNC(=O)N(C)C[C@@H]1Oc2ncc(C#CC3CCCCC3)cc2C(=O)N([C@H](C)CO)C[C@H]1C,1.06 ± 0.018
16,COCC(=O)N1C[C@@H](C)[C@H](OC)CN(C)C(=O)c2ccc(NC(=O)c3ccc(-c4ccccc4)cc3)cc2OC[C@H]1C,1.11 ± 0.032
17,CN(C[C@@H]1N[C@H](CO)[C@@H]1c1ccc(-c2cccc(F)c2)cc1)C(=O)CC1CC1,0.99 ± 0.086
18,N#C[C@H]1[C@H](c2ccc(-c3cccc(F)c3)cc2)[C@@H](CO)N1c1nc(-c2ccccc2)cs1,1.12 ± 0.014
19,CN1C(=O)c2cc(NC(=O)Nc3ccccc3Cl)ccc2OC[C@@H]2O[C@H](CC(=O)O)CC[C@H]21,0.907 ± 0.024
20,O=C(NCCCN1CCOCC1)[C@H]1[C@H](CO)[C@H]2Cn3c(cccc3=O)[C@@H]1N2C(=O)NC1CCCC1,0.996 ± 0.034
21,O=C(C1CCC1)N1C[C@@H]2N[C@H](C1)[C@@H]2c1ccc(/C=C/c2ccccc2)cc1,0.799 ± 0.019
22,O=C(C[C@@H]1C=C[C@H](NC(=O)c2cnccn2)[C@@H](CO)O1)NCc1ccccc1F,1.09 ± 0.077
